{
  "source": "PubChem BioAssay AID493208",
  "about": "(National Center for Advancing Translational Sciences (NCATS), 2011)",
  "note": "Out of some 44,000 compounds screened, about 340 (0.77%) were called active. About 5% were inconclusive and are not listed. Calls follow the shape of the dose curve; as a rule, active = well fitted inhibition curve with a large enough effect; inconclusive = small, poorly fitted or top-dose-only effect; inactive = flat fitted curve, though single readings scatter. This is one part of the list.",
  "data": [
    {"assay": "Acumen qHTS Assay for Inhibitors of the mTORC1 Signaling Pathway in MEF (Tsc2-/-, p53-/-) Cells: Sytravon;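 also: plate controls were DMSO for no effect and rapamycin for full effect; nearly all actives have a fitted effect of over 50% in size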", "conditions": "phospho-rpS6 immunofluorescence/PI, 24 h; series mostly up to 38.3 µM; activity change, negative = inhibition: at the top concentration", "summary_of_the_method": "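Tsc2-/-, p53-/- MEFs (empty-vector stable line) in DMEM + 10% FBS were treated with compounds 24 h at 37 degree Celsius, fixed, and immunostained for phospho-rpS6 (Alexa-488) with propidium iodide counterstain. Laser-scanning cytometry gave % positive cells, normalized against 7.5 nM rapamycin and DMSO.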", "values": [
      {"smiles": "Cc1noc(/C=C/c2ccccc2F)c1S(=O)(=O)N1CCC(C(=O)Nc2ccc(C#N)cc2)CC1", "activity change, negative = inhibition": "inactive: 1.01%"},
      {"smiles": "CCOC(=O)C1CCCN(C(=O)c2ccc3c(c2)N(Cc2ccc(Cl)cc2)C(=O)c2ccccc2S3=O)C1", "note": "(configuration not stated)", "activity change, negative = inhibition": "inactive: 0.762%"},
      {"smiles": "O=C(CSc1nc2ccsc2c(=O)n1-c1ccc(Br)cc1)NCc1ccccc1", "activity change, negative = inhibition": "inactive: -7.71%"},
      {"smiles": "Cc1ccccc1C(=O)N1CCC(N2CCN(Cc3ccc(F)cc3)C(=O)C2=O)CC1", "activity change, negative = inhibition": "inactive: 7.15%"},
      {"smiles": "O=C(Nc1cccc(C(F)(F)F)c1)Nc1cccs1", "activity change, negative = inhibition": "inactive: -8.67%"},
      {"smiles": "O=C(CSc1nnc2scc(-c3ccccc3)n12)Nc1ccc(Cl)cc1", "activity change, negative = inhibition": "inactive: -7.6%"},
      {"smiles": "CCOC(=O)c1ccc(NC(=O)c2ccc(CN3C(=O)CCn4nc(C)cc43)cc2)cc1", "activity change, negative = inhibition": "inactive: 3.31%"},
      {"smiles": "CCCCN(CC)C(=O)C1CCCN(c2ncnc3c2nc2n3CCCCC2)C1", "note": "(configuration not stated)", "activity change, negative = inhibition": "inactive: 4.64%"},
      {"smiles": "CCOc1ccc(CNC(=O)CCn2c(=O)c3cccn3c3ccc(F)cc32)cc1", "activity change, negative = inhibition": "inactive: -1.65%"},
      {"smiles": "O=C(Cn1c(=O)c2ccccc2n2nncc12)Nc1cccc(F)c1", "activity change, negative = inhibition": "inactive: -0.744%"},
      {"smiles": "O=C(NCc1nc2ccccc2[nH]1)c1cccc(Cl)c1", "activity change, negative = inhibition": "inactive: -3.8%"},
      {"smiles": "CCOC(=O)c1c(C)[nH]c(C)c1S(=O)(=O)N(C)CC(=O)NCc1cccc(Br)c1", "activity change, negative = inhibition": "inactive: -9.23%"},
      {"smiles": "COc1ccc(NC(=O)NCCn2nnc3cc(S(=O)(=O)N(C)C)ccc32)cc1", "activity change, negative = inhibition": "inactive: 0%"},
      {"smiles": "CCc1cccc(C)c1NC(=O)CCCN1C(=O)C(c2ccccc2)Oc2cccnc21", "note": "(configuration not stated)", "activity change, negative = inhibition": "inactive: -4.77%"},
      {"smiles": "Cc1ccccc1Cn1cnc2nc3c(cc2c1=O)CC(C)CC3", "note": "(configuration not stated)", "activity change, negative = inhibition": "inactive: -0.611%"},
      {"smiles": "CCc1cccc(C)c1NC(=O)CCCn1nc(C)c2sc3ccccc3c2c1=O", "activity change, negative = inhibition": "inactive: 3.98%"},
      {"smiles": "CCOc1ccc2nc(N3CCC(C(=O)Nc4cc(C)ccc4C)CC3)sc2c1", "activity change, negative = inhibition": "inactive: 0.867%"},
      {"smiles": "Cc1ccc(Cl)cc1NC(=O)CCn1c(=O)c2cccn2c2cccnc21", "activity change, negative = inhibition": "inactive: 0.765%"},
      {"smiles": "O=C(NC1CCCCC1)c1ccc(CSc2nc3ccncc3n2Cc2ccccc2F)cc1", "activity change, negative = inhibition": "inactive: -2.55%"},
      {"smiles": "COc1ccc(NC(=O)CSc2nc(-c3cccs3)cc(C(F)(F)F)n2)c(OC)c1", "activity change, negative = inhibition": "inactive: -17%"},
      {"smiles": "Cc1ccc(NC(=O)Cn2cc3c(n2)CCCC3)c(C)c1", "activity change, negative = inhibition": "inactive: 3.46%"},
      {"smiles": "COCCCNC(=O)c1ccc2c(c1)nc1n2CCCCC1", "activity change, negative = inhibition": "inactive: 6.83%"},
      {"smiles": "O=C(CSCc1cnn(-c2ccccc2)c1-n1cccc1)NCc1ccc(F)cc1", "activity change, negative = inhibition": "inactive: -4.94%"},
      {"smiles": "CCN(CC)CCCNC(=O)CSc1nc(-c2ccc(OC)cc2)cc(C(F)(F)F)n1", "activity change, negative = inhibition": "inactive: 0.192%"},
      {"smiles": "CCc1ccc(NC(=O)CSc2ccc(-c3cccs3)nn2)cc1", "activity change, negative = inhibition": "inactive: 0.613%"},
      {"smiles": "Oc1c(C(c2ccccc2Cl)N2CCN(Cc3ccccc3)CC2)sc2nc(-c3ccco3)nn12", "note": "(configuration not stated)", "activity change, negative = inhibition": "inactive: 0.644%"},
      {"smiles": "Cc1noc(Cn2c(=O)c3cc4c(cc3n(CC(=O)Nc3ccccc3F)c2=O)OCO4)n1", "activity change, negative = inhibition": "inactive: -5.65%"},
      {"smiles": "CCOC(=O)C1CCC(CN(Cc2ccc(OC)cc2)S(=O)(=O)c2ccc(F)c(C(=O)Nc3cc(C)ccc3C)c2)CC1", "note": "(configuration not stated)", "activity change, negative = inhibition": "inactive: 6.09%"},
      {"smiles": "CCOC(=O)c1cnc2ccc(OCC)cc2c1N1CCN(c2ccccc2F)CC1", "activity change, negative = inhibition": "inactive: -23.8%"},
      {"smiles": "CCOc1ccc(NC(=O)c2ccc3snnc3c2)cc1", "activity change, negative = inhibition": "inactive: -8.96%"},
      {"smiles": "Cc1nc(N2CCCC2)c2c(C(=O)Nc3ccc(Br)cc3F)c(C)oc2n1", "activity change, negative = inhibition": "inactive: 2.92%"},
      {"smiles": "Cc1ccccc1C(=O)Nc1nc(-c2ccc(Br)cc2)ns1", "activity change, negative = inhibition": "inactive: -8.63%"},
      {"smiles": "COc1ccc(-c2csc3nc(-c4ccccc4)oc(=O)c23)cc1OC", "activity change, negative = inhibition": "inactive: -8.2%"},
      {"smiles": "CCOC(=O)c1c(C)n(-c2ccccc2)c2ccc(OC(=O)c3cccc(Cl)c3)cc12", "activity change, negative = inhibition": "inactive: -5.42%"},
      {"smiles": "CC(C)NC(=O)C1CCC(Cn2c(=O)c3sccc3n(CC(=O)Nc3ccccc3)c2=O)CC1", "note": "(configuration not stated)", "activity change, negative = inhibition": "inactive: 1.42%"},
      {"smiles": "CC(C)Oc1ccc(CNC(=O)C2CCN(C(=O)N3CC(C)Oc4ccccc43)CC2)cc1", "note": "(configuration not stated)", "activity change, negative = inhibition": "inactive: 1.31%"},
      {"smiles": "Cc1cccc(-c2nc(CSc3nncn4c3cc3sccc34)c(C)o2)c1", "activity change, negative = inhibition": "inactive: -1.19%"},
      {"smiles": "CCOC(=O)c1ccc(CN(Cc2ccccc2)S(=O)(=O)c2ccc(Cl)cc2)cc1", "activity change, negative = inhibition": "inactive: -9.2%"},
      {"smiles": "FC(F)(F)c1cc(-c2cccc(Br)c2)nc2ncnn12", "activity change, negative = inhibition": "inactive: -3.71%"},
      {"smiles": "CCOc1ccc(NC(=O)c2ccc3c(SCC(=O)O)c4c(nc3c2)CCC4)cc1", "activity change, negative = inhibition": "inactive: 0.187%"},
      {"smiles": "COc1ccc(OC)c(C2c3c(-c4ccc(Br)cc4)n[nH]c3C(=O)N2c2ccc(Cl)cc2)c1", "note": "(configuration not stated)", "activity change, negative = inhibition": "inactive: -12.4%"},
      {"smiles": "COc1ccccc1C(=O)Nc1ccc(NC(=O)c2cccs2)cc1", "activity change, negative = inhibition": "inactive: 7.67%"},
      {"smiles": "COc1ccc(Nc2cc(C(=O)NCCCN(C)Cc3ccccc3)c3ccccc3n2)c(OC)c1", "activity change, negative = inhibition": "inactive: -14.9%"},
      {"smiles": "CCOc1ccc(S(=O)(=O)NCC(c2ccco2)S(=O)(=O)c2ccc(C)cc2)cc1", "note": "(configuration not stated)", "activity change, negative = inhibition": "inactive: 0.884%"},
      {"smiles": "COc1ccccc1NC(=O)N1CCN(c2nnc(C)c3c(C)n(-c4ccc(Cl)cc4)nc23)CC1", "activity change, negative = inhibition": "inactive: -10.7%"},
      {"smiles": "O=C(Nc1cccc(C(F)(F)F)c1)N1CCC(CN2CCCCCC2)CC1", "activity change, negative = inhibition": "inactive: -7.17%"},
      {"smiles": "CCOc1ccccc1NC(=O)COC(=O)c1cn(CC)c2nc(C)ccc2c1=O", "activity change, negative = inhibition": "inactive: 9.59%"},
      {"smiles": "COc1cc(-c2nc3ccccn3c2Nc2ccccc2C)ccc1O", "activity change, negative = inhibition": "inactive: 4.19%"},
      {"smiles": "COc1ccc(CC(=O)NCCc2sc(-c3ccc(Cl)cc3)nc2C)cc1OC", "activity change, negative = inhibition": "inactive: -9.73%"},
      {"smiles": "COc1ccccc1CNS(=O)(=O)c1ccc(-c2cc(C(F)(F)F)on2)s1", "activity change, negative = inhibition": "inactive: -11.2%"},
      {"smiles": "CC1CCN(c2cc3c(cc2F)c(=O)c(S(=O)(=O)c2cccc(Cl)c2)cn3Cc2ccccc2)CC1", "activity change, negative = inhibition": "inactive: 0.353%"},
      {"smiles": "Cn1nc(-c2ccccc2F)c2cc(C(=O)NCc3ccc(Cl)cc3)sc21", "activity change, negative = inhibition": "inactive: -11%"},
      {"smiles": "COc1ccc(NC(=O)C(=O)NCCc2sc(-c3ccc(Cl)cc3)nc2C)cc1", "activity change, negative = inhibition": "inactive: 0.0803%"},
      {"smiles": "COc1ccc(C2=C(C(C)=O)Sc3nnc(-c4ccc(C)cc4)n3N2C(C)=O)cc1OC", "activity change, negative = inhibition": "inactive: -1.29%"},
      {"smiles": "COc1ccc(OC)c(NC(=O)CCNS(=O)(=O)c2cccc3nsnc23)c1", "activity change, negative = inhibition": "inactive: 6.29%"},
      {"smiles": "COc1ccccc1CNc1ccc(-c2nc(-c3ccccn3)no2)cc1[N+](=O)[O-]", "activity change, negative = inhibition": "inactive: -4.84%"},
      {"smiles": "O=C(NCc1ccc(F)cc1)c1c2c(nc3ccccc13)C(=O)N(C1CCCCC1)C2", "activity change, negative = inhibition": "inactive: 3.98%"},
      {"smiles": "COc1cc(Cl)c(C)cc1NC(=O)Cn1cc(S(=O)(=O)N2CCN(c3ccccc3F)CC2)c2ccccc2c1=O", "activity change, negative = inhibition": "inactive: -2.71%"},
      {"smiles": "Cc1cccc(CCNC(=O)C2CCC(CNS(=O)(=O)c3c(C)cc(C)cc3C)CC2)c1", "note": "(configuration not stated)", "activity change, negative = inhibition": "inactive: -4.18%"},
      {"smiles": "O=C(Cc1ccc(NC(=O)N2CCCCc3ccccc32)cc1)NCc1ccccc1Br", "activity change, negative = inhibition": "inactive: -0.18%"},
      {"smiles": "N#Cc1ccc(OC(=O)c2cc(-c3ccc(Cl)cc3)on2)cc1", "activity change, negative = inhibition": "inactive: -17.2%"},
      {"smiles": "Cc1cccc(NS(=O)(=O)c2ccc3[nH]c(=O)[nH]c3c2)c1C", "activity change, negative = inhibition": "inactive: -7.55%"}
    ]}
  ]
}
